Experimental data published in PubChem BioAssay AID2451 (National Center for Advancing Translational Sciences (NCATS), 2010).
Screen size: about 290,000 compounds; about 2,100 (0.72%) were called active. Inconclusive means that the source gave no clear call. Such entries were picked first, then a sample of the others. The call rests on the fitted dose curve; in most records, active means well fitted inhibition curve with a large enough effect; inconclusive means small, poorly fitted or top-dose-only effect, or effect the other way; inactive means flat fitted curve, though single readings scatter. A potency beside an inconclusive call is a rough fit, not a confirmed value.

molecular target: Fructose-bisphosphate aldolase (Giardia intestinalis (strain ATCC 50803 / WB clone C6)) (UniProt A8B2U2); experiment: qHTS Assay for Inhibitors of Fructose-1,6-bisphosphate Aldolase from Giardia Lamblia; details: purified Giardia FBPA; activity, negative = inhibition: at 59.6 µM (top of the series) unless noted; further: nearly all actives have a fitted effect of over 55% in size
Sequence of UniProt A8B2U2 (A8B2U2 whole entry, looked up): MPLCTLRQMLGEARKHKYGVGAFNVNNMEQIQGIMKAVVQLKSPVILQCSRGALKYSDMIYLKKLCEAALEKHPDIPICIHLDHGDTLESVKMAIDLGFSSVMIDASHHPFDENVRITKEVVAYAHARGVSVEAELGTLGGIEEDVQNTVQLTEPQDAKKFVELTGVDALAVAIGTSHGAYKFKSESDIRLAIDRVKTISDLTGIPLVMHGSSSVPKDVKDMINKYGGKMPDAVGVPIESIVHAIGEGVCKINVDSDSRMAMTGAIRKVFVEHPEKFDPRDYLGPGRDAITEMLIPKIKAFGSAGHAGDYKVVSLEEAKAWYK
In short: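 40 nM FBPA preincubated 10 min at RT with compound (up to 57.5 uM final), then substrate plus GAPDH/TPI/NAD/arsenate coupling and diaphorase/resazurin added. Fluorescence read after 20 min at RT, 525/598 nm.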
On the % scale 0 is the no-effect control and ±100 the full control effect; potency means the concentration at half of the fitted maximal effect; tags describe the fitted curve by direction and shape.

| Compound | Potency | activity, negative = inhibition |
| --- | --- | --- |
| Cc1ccccc1CN1CCN(C(=O)Cc2ccccc2)CC1 | inconclusive: 19.9 µM [inhibitor, partial curve] |  |
| CC1CN(C(c2ccco2)c2sc3ncnn3c2O)CC(C)O1 (stereo not drawn) | inconclusive: 15.8 µM [inhibitor, partial curve] |  |
| COc1ccc(NCc2n[nH]c(=O)c3ccccc23)cc1 | inconclusive: 15.8 µM [inhibitor, partial curve] |  |
| O=C(Nc1nccc(-c2cccs2)n1)c1ccccc1Cl | active: 7.92 µM |  |
| CCOC(=O)c1cc2sccc2n1CCCN1C(=O)c2ccccc2C1=O |  | inactive: -3.9% |
| COC(=O)c1cc(C(=O)Nc2nc3ccccc3[nH]2)cc([N+](=O)[O-])c1 | inconclusive: 25.1 µM [activator, partial curve] |  |
| O=C(NCc1ccc2c(c1)OCO2)c1cc2ncc(Br)cn2n1 | inconclusive: 15.8 µM [inhibitor, single point] |  |
| COc1ccc(C)cc1NC(=O)C1CCCN(S(=O)(=O)c2ccc3c(c2)CCCN3C(C)=O)C1 (stereo not drawn) |  | inactive: 14.7% |
| CCCNC(=S)NCCN1CCCCC1 | inconclusive: 22.3 µM [inhibitor, partial curve] |  |
| COC(=O)CCC(=O)OC1(C)C(=O)C=C2C=C(C3CC3)N(c3ccc(CO)cc3)C=C2C1=O (stereo not drawn) | inconclusive: 0.63 µM [inhibitor, full curve] |  |
| Nc1c(C=C2C=CC(=O)C=C2)c(=O)nc2sc(CC(=O)N3CCOCC3)nn12 | inconclusive: 31.6 µM [inhibitor, partial curve] |  |
| CS(=O)(=O)n1nc(-c2ccccc2)nc1N |  | inactive: 4.52% |
| CCOC(=O)Cc1cnc(NC(=O)CSc2nc(C(C)C)cc(=O)[nH]2)s1 | inconclusive: 22.4 µM [inhibitor, single point] |  |
| CCOc1cc(C(=S)N2CCOCC2)ccc1OS(=O)(=O)c1ccc(OC)cc1 |  | inactive: 9.41% |
| CCN(CC)c1ccc(/C=N/O)cc1 |  | inactive: -5.74% |
| CCOC(=O)CNC(=O)CSc1nc(-c2cccc(C)c2)ns1 |  | inactive: 1.18% |
| COc1ccc(NC(=S)Nc2cccc3cnccc23)cc1 | inconclusive: 6.29 µM [inhibitor, partial curve] |  |
| Fc1ccc2c(c1)C1C=CCC1C(c1cc3c(cc1Br)OCO3)N2 (stereo not drawn) |  | inactive: -7.02% |
| CCc1ccc(S(=O)(=O)NC(=S)Nc2ccccc2)cc1 |  | inactive: -5.78% |
| O=C(c1cc(-c2ccc(Cl)cc2)on1)N1CCOCC1 |  | inactive: 6.11% |
| O=C(CNCc1ccccn1)Nc1cc(S(=O)(=O)N2CCCCC2)ccc1Cl | inconclusive: 25.1 µM [inhibitor, single point] |  |
| CC(C)N1CCC(N2CCN(Cc3ccc(-c4ccccc4Cl)o3)CC2CCO)CC1 (stereo not drawn) | inconclusive: 19.9 µM [inhibitor, partial curve] |  |
| O=C1Nc2c(c(=O)[nH]c(=O)n2-c2ccccc2)C1(Nc1ncccn1)C(F)(F)F (stereo not drawn) | inconclusive: 14.1 µM [inhibitor, partial curve] |  |
| COc1ccc(C)cc1Nc1n[n+](-c2ccccc2)c(-c2cc(OC)c(OC)cc2Br)s1 | inconclusive: 25.1 µM [inhibitor, partial curve] |  |
| CCCN1C(=O)c2ccccc2NC1c1ccc(OC)c(CSc2ccccn2)c1 (stereo not drawn) |  | inactive: 10.1% |

| Compound | Potency | activity, negative = inhibition |
| --- | --- | --- |
| COC(=O)/C(=N/Nc1ccc(C)cc1)N1CCCc2ccccc21 | inconclusive: 15.8 µM [inhibitor, single point] |  |
| Cn1c(Cn2nnc3ccccc32)nnc1SCC(=O)c1ccc(F)cc1 | inconclusive: 31.6 µM [inhibitor, partial curve] |  |
| O=C(Nc1ccc(F)cc1)c1cccc(N2C(=O)C3C4C=CC(C5CC45)C3C2=O)c1 (stereo not drawn) |  | inactive: 2.94% |
| O=c1ccn(-c2cccc(C(F)(F)F)c2)nc1-c1ccn(-c2cccc(Cl)c2)n1 | inconclusive: 15.8 µM [inhibitor, single point] |  |
| COc1ccccc1C(=O)NNC(=O)c1nn(Cc2ccccc2)c(=O)c2ccccc12 | inconclusive: 31.5 µM [inhibitor, single point] |  |
| CC(=O)c1ccccc1Oc1cc(NN2CCCCC2)c([N+](=O)[O-])cc1[N+](=O)[O-] |  | inactive: 5.75% |
| COc1ccccc1N1CCN(/N=C/c2ccc(O)c(O)c2)CC1 | inconclusive: 22.3 µM [inhibitor, partial curve] |  |
| Cc1ccc(/C=C2/NC(=O)N(Cc3ccccc3F)C2=O)o1 | inconclusive: 19.9 µM [inhibitor, single point] |  |
| CC(/C=C/c1ccco1)=N\NC(=O)c1cc(C)[nH]n1 | inconclusive: 17.7 µM [inhibitor, single point] |  |
| N/C(=N\OC(=O)c1ccc(F)cc1)c1ccc(Br)cc1 |  | inactive: 1.03% |
| CCCn1c(=O)c2ccccc2n2c(SCCNCCO)nnc12 | inconclusive: 22.4 µM [inhibitor, single point] |  |
| Cc1cc(C2=NNC(=Nc3ccc(S(=O)(=O)N4CCOCC4)cc3)SC2)c(C)n1C | inconclusive: 15.8 µM [inhibitor, single point] |  |
| CCN1C(=O)/C(=C2\SC(=S)N(NC(=O)c3ccccc3O)C2=O)c2ccccc21 | inconclusive: 15.8 µM [inhibitor, partial curve] |  |
| CC(C)Oc1ccc(C(=O)NC2=NCCS2)cc1 | inconclusive: 8.89 µM [inhibitor, partial curve] |  |
| COc1ccc(N2CCC(CNC(=O)Nc3ccc(C)c(C)c3)C2)cc1 (stereo not drawn) | inconclusive: 19.9 µM [inhibitor, single point] |  |
| Cc1ccc(S(=O)(=O)/C=C\C#N)cc1 | inconclusive: 25.1 µM [inhibitor, partial curve] |  |
| Fc1ccc(NC(=S)Nc2cccc3ccccc23)cc1 | inconclusive: 39.8 µM [inhibitor, single point] |  |
| C=CCn1c(=O)c2ccccc2n2c(=S)[nH]nc12 | inconclusive: 14.1 µM [inhibitor, partial curve] |  |
| Cc1ccc2nc(-c3ccc(-c4ccccn4)s3)cn2c1 | inconclusive: 15.8 µM [inhibitor, single point] |  |
| C/C(Cn1nnc([N+](=O)[O-])n1)=N\NC(=O)c1ccncc1 | active: 19.9 µM |  |
| O=C(CN1CC(=O)Oc2ccccc21)OCC(=O)c1ccccc1 | inconclusive: 5.61 µM [inhibitor, partial curve] |  |
| COc1ccc(/C=N/Nc2nc(C)cc(=O)[nH]2)cc1OC | inconclusive: 12.6 µM [inhibitor, partial curve] |  |
| Oc1ccc2ccccc2c1C=NCc1ccccc1 | inconclusive: 19.9 µM [inhibitor, partial curve] |  |
| CC(C)NC(=O)N1CCC2(CC1)CCN(S(C)(=O)=O)CC2 |  | inactive: 2.55% |
| CCOc1ccc2nc(N=Nc3c(O)[nH]c(=S)[nH]c3=O)sc2c1 | inconclusive: 31.5 µM [inhibitor, single point] |  |

| Compound | Potency | activity, negative = inhibition |
| --- | --- | --- |
| COc1ccc(/C(O)=C2/C(=O)C(=O)N(CCN(C)C)C2c2ccccn2)cc1OC (stereo not drawn) | inconclusive: 11.2 µM [inhibitor, partial curve] |  |
| CCc1ccc(S(=O)(=O)Nc2nccs2)cc1 | inconclusive: 15.8 µM [inhibitor, partial curve] |  |
| COc1ccccc1NC(=O)COC(=O)c1ccccc1OCC(=O)Nc1ccc(SC(F)F)cc1 |  | inactive: 0.53% |
| CCN(Cc1ccncc1)Cc1c(O)ccc2cc(Br)ccc12 | active: 8.89 µM |  |
| NCCC[C@H](N)CC(=O)N[C@H]1CNC(=O)[C@@H]([C@@H]2C[C@H](O)N=C(N)N2)NC(=O)/C(=C/NC(N)=O)NC(=O)[C@@H](CO)NC(=O)[C@@H](CO)NC1=O |  | inactive: -1.1% [at 21.7 µM] |
| O=C(Nc1nc(-c2ccc3c(c2)OCCO3)cs1)C1CCCC1 |  | inactive: -17.5% |
| C=CCSc1n[nH]c(-c2cccs2)n1 | active: 12.6 µM |  |
| CC(=Nc1cc(C(=O)c2ccccc2)ccc1N)C1=C(O)CC(C)(C)CC1=O | inconclusive: 15.8 µM [inhibitor, single point] |  |
| CCCN(C/C=C\I)[C@@H]1CCc2cccc(O)c2C1 | inconclusive: 17.7 µM [inhibitor, partial curve] |  |
| Clc1ccc(Cn2ncc3c(N4CCCCC4)ncnc32)cc1 |  | inactive: 0.183% |
| Cc1nc(SCC(=O)NC(C)(C#N)C2CC2)c2c(-c3cccs3)csc2n1 (stereo not drawn) |  | inactive: 7.6% |
| N#CCc1ccc(NC(=O)/C=C/c2ccc([N+](=O)[O-])o2)cc1 | inconclusive: 31.5 µM [inhibitor, single point] |  |
| CC1CN(CN2C(=O)c3ccccc3C2=O)CC(C)O1 (stereo not drawn) |  | inactive: -0.0211% |
| CC1(C)S[C@@H]2[C@H](N)C(=O)N2C1C(=O)O (stereo partly drawn) | inconclusive: 14.1 µM [inhibitor, partial curve] |  |
| CC1(C)OC2C(CO)OC(n3cnc4c(=S)nc[nH]c43)C2O1 (stereo not drawn) | active: 4.46 µM |  |
| COCCNC(=O)CN1CCCCCC1 | inconclusive: 22.3 µM [inhibitor, partial curve] |  |
| COc1ccc2nc(NC(=S)NC(=O)c3ccco3)sc2c1 | inconclusive: 4.46 µM [inhibitor, full curve] |  |
| NC(=S)N/N=C/c1ccc(C23CC4CC(CC(C4)C2)C3)cc1 |  | inactive: 9.85% |
| Cc1cc(N=Cc2c(O)ccc3ccccc23)no1 | inconclusive: 22.3 µM [inhibitor, partial curve] |  |
| Cc1ncc(CCl)c2c1OC(C)(C)OC2 | inconclusive: 17.7 µM [inhibitor, single point] |  |
| Cn1c(=O)[nH]c(=O)c2c1nc(SCCN1CCCCC1)n2CCCc1ccccc1 | inconclusive: 31.6 µM [inhibitor, single point] |  |
| CCC1CCCCN1CCCCOc1cccc(Cl)c1 (stereo not drawn) | inconclusive: 10 µM [inhibitor, partial curve] |  |
| O=C(Nc1nncs1)c1cccc(S(=O)(=O)N2CCc3ccccc32)c1 | inconclusive: 15.8 µM [activator, partial curve] |  |
